According to PMC12136788:
Some of the results follow.

T1: UNK ZnF1-6 (called full-length) (human, UniProt Q9C0B0 30-357)
T1 sequence: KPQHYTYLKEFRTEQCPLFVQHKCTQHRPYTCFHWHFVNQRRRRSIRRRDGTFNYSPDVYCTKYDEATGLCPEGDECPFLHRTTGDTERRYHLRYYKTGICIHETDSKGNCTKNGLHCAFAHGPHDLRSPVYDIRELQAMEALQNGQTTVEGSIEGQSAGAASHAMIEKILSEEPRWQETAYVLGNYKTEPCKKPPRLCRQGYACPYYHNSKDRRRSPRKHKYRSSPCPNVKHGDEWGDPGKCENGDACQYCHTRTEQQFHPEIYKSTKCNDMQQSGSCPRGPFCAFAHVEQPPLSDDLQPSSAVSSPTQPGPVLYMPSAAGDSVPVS

B1: chr12:18688087:18688218:-|CDS|ENSG00000139151|control|control|control (ssRNA)
RNA: GGGAGUUCUACAGUCCGACGAUCUGGUAUCCAGUUGCCUCUUACUCAUUCAUCAUCUAACAAAGGUGAUUCAUUAGUAAUUAUAGAAGUUUUUGGUGUUCCAAAUGAUCAAAUGAAGCAGCAGACUCGUGUAAUUAAAAAAAACAACAGAGGAUUGAGCAUCA
B2: chr10:78022286:78022401:-|CDS|ENSG00000148606|unk|FALSE|unique (ssRNA)
RNA: GGGAGUUCUACAGUCCGACGAUCAACAUAGUAUCUCCAUUUCUGCCUUUCUUCGUUUCCAUAGGAAAACUUGAAUCCCUUAGUAGUUCUGAAUUUAUUUAAACGAAUCCCAGCUGAAGAUGUUCCUCUACUUCUGAUGAACCCCAACAGAGGAUUGAGCAUCA
B3: chr2:165880514:165880799:-|CDS|ENSG00000123607|control|control|control (ssRNA)
RNA: GGGAGUUCUACAGUCCGACGAUCGAUGGCAUGGAAAUAUAGCAAUCGGACAAAUCCGGCAGUAGGUGAGUUUGGCAAUCACCUAGAUUUUUCACAGAAAAAUUAUGUUGUAUUUAUUAAUUUUCAUUUAAAUGCAUUUGAUUUCAACAGAGGAUUGAGCAUCA
B4: ENSG00000070961:be:win_1701|CDS|ENSG00000070961|bound_else_gene|NA|bound_elsewhere_windowed (ssRNA)
RNA: GGGAGUUCUACAGUCCGACGAUCACCAGAAGAAGCACUGUACAAAGUCUACACCUUCAAUUCUGUUAGGAAGUCCAUGAGUACUGUCCUGAAAAAUUCAGAUGGAAGUUAUCGAAUAUUCAGCAAGGGUGCAUCUGAGAUAAUCAACAGAGGAUUGAGCAUCA
B5: chr21:25881051:25881209:-|3pUTR|ENSG00000142192|msi1_unk|total|mutant (ssRNA)
RNA: GGGAGUUCUACAGUCCGACGAUCUUUUUUUUCCAUGACUGCAUUUUACUGUACAGAUUGCUGCUUCUGCUAUAUUUGUGAUACCGGAAUUAAGAGGAUACACACGUUUGUUUCUUCGUGCCUGUUUUAUGUGCACACAUCCGGCAACAGAGGAUUGAGCAUCA
B6: chr22:43879677:43880794:-|three_prime_utr|ENSG00000100341|control|control|control (ssRNA)
RNA: GGGAGUUCUACAGUCCGACGAUCGAGAAAGGAGGACAGCCACAGAGACACAUGUCUUACUUUCAGAAUUUCCACGGGGGGACUAGGAGGGCAGCAUUGCUGGGGAGAGGGGCUCCUGUUCUGCCGUGGAGCUGCCCACGGAGCCAACAGAGGAUUGAGCAUCA
B7: chr8:23842113:23842214:-|3pUTR|ENSG00000159167|msi1|total|mutant (ssRNA)
RNA: GGGAGUUCUACAGUCCGACGAUCACUUCCGACAUUUUUGUGCCAUUAUAUUUGCAUUAUGUAUUUAUAAUUUAAAUGAUAUUCCGGUUUUUGGCUGAGUACUGGAAUAAACAGUGAGCAUAUCUGGUAUAUGUCAUUAUUUAUCAACAGAGGAUUGAGCAUCA
B8: chr9:15171111:15171212:-|3pUTR|ENSG00000155158|unk|FALSE|unique (ssRNA)
RNA: GGGAGUUCUACAGUCCGACGAUCCUGCUUUAAAUGAUAUGUAAAAUAUCAAUAAUUUUUACACUUAAGAUGUUGGUAAGACCUAGUUUUCUAAUCUCUCUAGCACUGUGAUGUCUCCUUGUAGAUAAUCUGGACCUUGCUUAGCAACAGAGGAUUGAGCAUCA
B9: chr12:107752058:107752159:-|CDS|ENSG00000110851|unk|FALSE|unique (ssRNA)
RNA: GGGAGUUCUACAGUCCGACGAUCUAACUCUAUAAAUGUUGAUGGUAAUACAGCAUUAUCUAUCACCAAUAACCCUUCAGCACUAGAUCCCUAUCAGUCCAAUGGAAAUGUUGGAUUAGAACCAGGCAUUGUUUCAAUAGACUCCAACAGAGGAUUGAGCAUCA
B10: chr5:132541444:132541810:-|three_prime_utr|ENSG00000113525|control|control|control (ssRNA)
RNA: GGGAGUUCUACAGUCCGACGAUCAAAUUGAUAUACUUUUUUCUUAUUUAACUUAACAUUCUGUAAAAUGUCUGUUAACUUAAUAGUAUUUAUGAAAUGGUUAAGAAUUUGGUAAAUUAGUAUUUAUUUAAUGUUAUGUUGUGUCAACAGAGGAUUGAGCAUCA
B11: chr8:86558718:86558819:+|3pUTR|ENSG00000085719|unk|FALSE|unique (ssRNA)
RNA: GGGAGUUCUACAGUCCGACGAUCCUGUUGUUGUUUUUGUUUACUUUCAUAUGAUGAAAAUGCUGUGUUUAAGUGUUUGUCAAUAGGAAGAAUGGAAAACUGUUGGGAUGAUGUGGUUUGCAGGUUGCUGUGCCUGAUUCACAGCAACAGAGGAUUGAGCAUCA
B12: chr14:75059847:75060235:-|three_prime_utr|ENSG00000119640|control|control|control (ssRNA)
RNA: GGGAGUUCUACAGUCCGACGAUCAACCACAUUAAAAAAAUAAAAAGGAUAACUGGAAAAUCCCAAAAUAUUUGGAAACCAUAUAGCACACUUACUUCUAAAAUUGUGGUAGAAUACAUAUAACAUAGAAAUUAUUGUUCUAACCAACAGAGGAUUGAGCAUCA
B13: chr7:56101660:56101848:-|3pUTR|ENSG00000106153|msi1|total|mutant (ssRNA)
RNA: GGGAGUUCUACAGUCCGACGAUCUGGAGAGAUGGAAAAUCAGCUCUCAUAACUAAGUUAAUUCCGUAUAAAAACCGAAUUGACCGUGAGGGUAUAAAGUGUAACCAUCAGUUAAACCUCUCCUGUCAUUCCUGGCUUCCUUGCCAACAGAGGAUUGAGCAUCA
B14: chr14:100882551:100882663:-|CDS|ENSG00000254656|unk|total|mutant (ssRNA)
RNA: GGGAGUUCUACAGUCCGACGAUCGCUCUCCCCAGACCCUAUCAUACCUCAGAACGUGAUUCACUUCAUCCUAAAGGACAUGCCCGGGUUCUUUGUGCUUUCUUAUGGCCAGGAAGUCCUGAUCUACUCAAUGAGUCAGGAGGACAACAGAGGAUUGAGCAUCA
B15: chr19:1826877:1828631:-|CDS|ENSG00000079313|control|control|control (ssRNA)
RNA: GGGAGUUCUACAGUCCGACGAUCCGACAGGAAGAGCACCAAGGCCCCGUCGGGGAAGCUAGUGGAGCGGAAAGCCCGCUCACUAGACGAGGGCGCCUCCCAGGACGCCCCCAAGCUGAAGAAGCGGGCCCUGAGCCACGCCGACAACAGAGGAUUGAGCAUCA
B16: chr15:49644301:49644402:+|3pUTR|ENSG00000104047|msi1|total|mutant (ssRNA)
RNA: GGGAGUUCUACAGUCCGACGAUCAAUAAUUGAAGCCUACCUGCCCGUGGCCAUCUCUGCUGCCAGGUGAAAAGAGCCUGACUCCGAAUGAAGUCAGCGAAGGAAAGCAGAGUGGAGAGAAAAAGAGAGACUGAGUCCUGAUGACAACAGAGGAUUGAGCAUCA
B17: chr11:72288215:72288316:-|3pUTR|ENSG00000162129|unk|total|mutant (ssRNA)
RNA: GGGAGUUCUACAGUCCGACGAUCACCCAGCUAAUUUUUUUUGUAUUUUCCGUAAAGACGGGGUUUCACCAUGUUUGCCAGGCCCGUCUCAAACUCCUGGUCUCAAGUGAUCCACCCACCUUGGCCUCCCAGAGUGCUGAGAUUCAACAGAGGAUUGAGCAUCA
B18: ENSG00000196526:stop:overlap|stop_codon|ENSG00000196526|stop_codon|NA|stop_codon (ssRNA)
RNA: GGGAGUUCUACAGUCCGACGAUCCCCCCUGCCGAGGGCAUGUGCUGCGGAAGGCCAAGGAAUGGGAAUUGAAGAACGGGACCUAGGGGACAGCAGCACCACUCCAGCCUCAGAGACUGCACACCCCCUUGCCUGUAUCCUCAUCAACAGAGGAUUGAGCAUCA
B19: chr5:134606522:134606623:-|3pUTR|ENSG00000152700|msi1_unk|FALSE|overlapping (ssRNA)
RNA: GGGAGUUCUACAGUCCGACGAUCAACUAUAAACCAUAUUUAAAAGCUCAUCAUGUUAAAUUUUUUAUGUACUUUUCUGGAACUAGUUUUUAAAUUUUAGAUUAUAUGUCCACCUAUCUUAAGUGUACAGUUAAUAAUUAGCUUCAACAGAGGAUUGAGCAUCA
B20: chr17:30194318:30198530:-|three_prime_utr|ENSG00000108576|control|control|control (ssRNA)
RNA: GGGAGUUCUACAGUCCGACGAUCCCAGACUCAAGGCCUCCAGCCACUUAUUUCCAUGGAUUCCCCUGGACAUAUUCCCAUGGUAGACUGUGACACAGCUGAGCUGGCCUAUUUUGGACGUGUGAGGAUGUGGAUGGAGGUGAUCAACAGAGGAUUGAGCAUCA
B21: chr6:26414640:26414744:+|3pUTR|ENSG00000026950|unk|FALSE|unique (ssRNA)
RNA: GGGAGUUCUACAGUCCGACGAUCCAGGCAGAGCAAAUACCCUAGAGAUUCUCUGUGAUAUAGGAAAUUUGGAUGAAGGGAGCUAGAAGAAAUACAGGGAUUUUUUUUUUUUUUUAAGAUGGAGUCUUACUCUGUUGCUAGGCUCAACAGAGGAUUGAGCAUCA
B22: ENSG00000140564:stop:overlap|stop_codon|ENSG00000140564|stop_codon|NA|stop_codon (ssRNA)
RNA: GGGAGUUCUACAGUCCGACGAUCGCACGGCACACGGUGUGCGGGGGAAGUGGCUGCGGUGGCCAACAACGGUGUCUGUGGUGUAGGUGUGGCCUACAACGCCCGCAUUGGAGGGGUGCGCAUGCUGGAUGGCGAGGUGACAGACAACAGAGGAUUGAGCAUCA

Each binder was assayed against T1, UNK ZnF1-6 (called full-length) (assay: nsRBNS (natural sequence RNA bind-n-seq); RBNS binding buffer (assumed for nsRBNS): 25 mM Tris pH 7.5, 150 mM KCl, 3 mM MgCl2, 0.01% Triton X-100, 500 ug/ml BSA, 20 U/ml SUPERase-In, 4 C; UNK is unkempt and MSI1 is Musashi-1; names of the RNAs are library labels; protein concentration not given here; high values mean tight binding).

| Binder | binding signal |
| --- | --- |
| B1 | 0.777 enrichment R |
| B2 | 4.02 enrichment R |
| B3 | 0.541 enrichment R |
| B4 | 0.292 enrichment R |
| B5 | 0.394 enrichment R |
| B6 | 1.05 enrichment R |
| B7 | 0.575 enrichment R |
| B8 | 1.17 enrichment R |
| B9 | 0.391 enrichment R |
| B10 | 7.43 enrichment R |
| B11 | 0.424 enrichment R |
| B12 | 2.02 enrichment R |
| B13 | 0.253 enrichment R |
| B14 | 0.569 enrichment R |
| B15 | 0.735 enrichment R |
| B16 | 0.574 enrichment R |
| B17 | 2.56 enrichment R |
| B18 | 2.74 enrichment R |
| B19 | 25.7 enrichment R |
| B20 | 0.707 enrichment R |
| B21 | 4.98 enrichment R |
| B22 | 2.94 enrichment R |
